According to paper PMC4336329 (PLoS ONE, 2015):
About 14,000 (4.5%) of roughly 310,000 compounds showed an effect of 50% or more. The effect is printed as a negative number. Some of the results follow.

These molecules were tested against human ether-à-go-go-related gene (hERG) potassium channel (human, UniProt Q12809) (assay: primary screen, population patch clamp on CHO cells stably expressing hERG).
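Further: peak tail current of the secondary pulse compared with the same well before compound.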

human ether-à-go-go-related gene (hERG) potassium channel, sequence (Q12809 whole entry, looked up): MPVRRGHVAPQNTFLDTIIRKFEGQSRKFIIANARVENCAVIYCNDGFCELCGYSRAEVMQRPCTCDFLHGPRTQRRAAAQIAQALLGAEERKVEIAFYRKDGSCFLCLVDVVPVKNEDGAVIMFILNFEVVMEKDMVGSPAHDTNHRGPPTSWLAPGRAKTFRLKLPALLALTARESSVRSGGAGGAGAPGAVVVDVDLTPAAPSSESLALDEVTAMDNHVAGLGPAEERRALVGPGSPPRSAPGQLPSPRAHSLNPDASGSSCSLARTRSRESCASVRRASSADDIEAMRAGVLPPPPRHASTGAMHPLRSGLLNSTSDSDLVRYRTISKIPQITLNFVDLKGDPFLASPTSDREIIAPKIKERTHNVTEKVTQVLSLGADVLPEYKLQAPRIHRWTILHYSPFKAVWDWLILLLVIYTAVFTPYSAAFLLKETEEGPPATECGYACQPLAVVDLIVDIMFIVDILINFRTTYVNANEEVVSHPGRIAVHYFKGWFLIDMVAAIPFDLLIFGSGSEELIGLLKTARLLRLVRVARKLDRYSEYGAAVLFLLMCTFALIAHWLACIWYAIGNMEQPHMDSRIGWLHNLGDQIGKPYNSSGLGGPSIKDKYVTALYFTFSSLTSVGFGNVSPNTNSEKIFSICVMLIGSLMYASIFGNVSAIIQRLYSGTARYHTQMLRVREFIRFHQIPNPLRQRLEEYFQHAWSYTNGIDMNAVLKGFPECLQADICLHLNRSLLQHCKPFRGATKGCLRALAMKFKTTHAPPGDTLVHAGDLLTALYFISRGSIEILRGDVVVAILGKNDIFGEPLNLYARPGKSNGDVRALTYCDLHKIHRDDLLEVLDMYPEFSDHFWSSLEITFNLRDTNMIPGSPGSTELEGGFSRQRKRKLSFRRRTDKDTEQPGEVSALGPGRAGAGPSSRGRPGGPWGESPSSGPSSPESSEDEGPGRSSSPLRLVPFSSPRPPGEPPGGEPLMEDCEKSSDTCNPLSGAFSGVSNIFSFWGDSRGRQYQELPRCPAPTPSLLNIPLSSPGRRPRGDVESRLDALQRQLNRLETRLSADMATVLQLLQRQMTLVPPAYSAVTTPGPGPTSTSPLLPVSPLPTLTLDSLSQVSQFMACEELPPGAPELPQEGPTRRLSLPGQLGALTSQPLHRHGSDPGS

| Structure (SMILES) | hERG current change (%, negative = inhibition) at 10uM [%] |
| --- | --- |
| CC(c1ccccc1F)n1cc(C(=O)NCCCn2ccnc2)nn1 (stereo not shown) | 8.49 |
| O=C(O)c1ccccc1N/C=C\[N+](=O)[O-] | 13.9 |
| O=S(=O)(Cc1ccccc1)N1CCCC(c2nc(-c3ccc(F)cc3)no2)C1 (stereo not shown) | -3.59 |
| COc1ccc(OC)c(C2CC(=O)N3CN(c4cccc(Cl)c4)CSC3=C2C#N)c1 (stereo not shown) | 19.1 |
| CCn1cc(C(=O)N[C@@H](CCSC)C(=O)NCCCn2ccnc2)c(=O)c2cc3c(cc21)OCO3 | 24.7 |
| O=C(NCCO)c1ccc(-c2nnc(N3CCOCC3)c3ccccc23)cc1 | 6.26 |
| Cc1ccc(S[C@@H](CCN2CC[C@H](NC(=O)OCc3ccccc3)CCC2=O)c2ccccc2)cc1 | -26.1 |
| Cc1ccc(C(=O)C(=S)N2CCOCC2)cc1 | -0.0216 |
| O=C1CCC(=O)N1OCCOc1ccccc1 | 3.24 |
| CCCOc1ccc(Cc2c(Cl)nc(SC)nc2N(C)C)cc1 | 14.2 |
| Nc1cc(=O)[nH]c(N)n1 | 15.9 |
| O=C(Cn1ccc([N+](=O)[O-])n1)NCc1ccco1 | 2.96 |
| Cc1ccc(S(C)(=O)=N/C=C2\C(=O)c3sccc3N(C)S2(=O)=O)cc1 (stereo not shown) | -36.2 |
| COc1ccc(C(=O)NNC(=O)c2ccc(S(=O)(=O)N3CCCCC3)cc2)cc1 | 0.716 |
| Cc1cccc(C)c1NC(=O)CN1C(=O)C2CC=CCC2C1=O (stereo not shown) | 14.4 |
| COc1ccc(Cn2nnc3c(=O)[nH]c(C4CCCN(C(=O)c5ccccc5)C4)nc32)cc1 (stereo not shown) | -22.5 |
| CC(C)CCNC(=O)CNC(=S)N(CCCN1CCOCC1)Cc1cccs1 | -32.6 |
| Cl.Cn1cccc1CNCC(O)c1ccccc1 (stereo not shown) | -21.8 |
| Cc1cccc(NC(=O)CSc2nnc(Cn3nnc(-c4ccccc4)n3)n2-c2ccccc2)c1 | 1.21 |
| Cc1cccc(-c2nsc(SCC(=O)Nc3ccc4c(c3)OCO4)n2)c1 | -16.2 |
| NC(=O)NC(CC(=O)NCCc1ccccn1)c1ccccc1Cl (stereo not shown) | 14.1 |
| CCC(=O)N1CCc2cc(S(=O)(=O)N3CCN(c4ccccc4)CC3)ccc21 | 12.2 |
| COc1cccc(CNCc2ccccc2Br)c1OC.O=C(O)C(=O)O | 4.22 |
| COc1ccc(N(CC(=O)Nc2cccnc2)S(=O)(=O)c2ccccc2)cc1Cl | -28.1 |
| COc1cc(CCCN[C@H](CN)Cc2ccccc2)cc(OC)c1OC | -4.22 |
| C#CCOCCOCCOCCNc1nc(N2CCN(C(=O)[C@H](CCCCN)n3cc([C@@H](N)C(C)CC)nn3)CC2)nc(N2CCN(C(=O)[C@H](CCCCN)n3cc([C@@H](N)CC(C)C)nn3)CC2)n1.Cl (stereo partly shown) | 4.49 |
| CCOc1ccc(NC(=O)C(Cc2ccccc2)NC(=O)C2CCCCC2)cc1 (stereo not shown) | 2.8 |
| CCOC(=O)c1cnn(Cc2ccccc2Cl)c1N | -11 |

| Structure (SMILES) | hERG current change (%, negative = inhibition) at 10uM [%] |
| --- | --- |
| CC12COC3(C(=O)NCCc4ccccc4)CC1CCC32C (stereo not shown) | 15.1 |
| CCOCCCn1c(=S)[nH]c2cc(C(=O)NCc3ccc(F)cc3)ccc2c1=O | 9.11 |
| CCOc1ccccc1N(C(=O)CNS(=O)(=O)c1ccccc1)C(CC)C(=O)NCc1ccco1 (stereo not shown) | 2.71 |
| Cc1[nH]n(-c2ccccc2)c(=O)c1N=Nc1ccc(Cl)cc1 | 23.7 |
| COc1ccc(NC(=O)C2C3CCC4C(CCC32)C4(Cl)Cl)cc1 (stereo not shown) | 24.3 |
| Cc1ccc2c(CN3CCC(C)CC3)cc(=O)oc2c1C | 0.61 |
| O=C(Nc1ccc(Cl)cc1Cl)c1cccc(N2C(=O)C=CC2=O)c1 | 7.37 |
| Cc1onc(-c2ccccc2)c1C(=O)Nc1ccc(S(=O)(=O)NC2=NCCCCC2)cc1 | 9.51 |
| O=C(CN1CCN(Cc2ccccc2)CC1)NNC(=O)c1ccc(Cl)cc1 | -12.1 |
| O=C(/C=C/c1ccc([N+](=O)[O-])cc1)NCCSCc1ccco1 | -61.3 |
| CCC(=O)N1C(C(=O)O)CSC1c1ccc(OC)cc1 (stereo not shown) | 2.53 |
| O=[N+]([O-])c1cc([N+](=O)[O-])c(Oc2c(Cl)cccc2Cl)cc1NN1CCCCC1 | 12.7 |
| CCOc1ccc(Cn2c(=O)oc3ccccc32)cc1 | 16.3 |
| O=C(NC(=O)c1ccccc1F)OCc1ccc(Cl)cc1Cl | -10.2 |
| CC(C)(C)C(=O)NC(=S)NNC(=O)c1ccc(-c2ccccc2)cc1 | 5.01 |
| O=C(Cc1ccc(Cl)c(Cl)c1)Nc1ccccc1N1CCCC1 | 0.464 |
| O=C(/C=C/c1cccc([N+](=O)[O-])c1)NCCN1C(=O)S/C(=C\c2ccc(F)cc2)C1=O | 15.3 |
| O=C(COc1ccc(Cl)cc1)Nc1ccc2oc(-c3ccncc3)nc2c1 | 3.86 |
| c1ccc(-c2ccc(C3=Nn4c(nnc4-c4cc(-c5ccccc5)n[nH]4)SC3)cc2)cc1 | -14.2 |
| Cc1ccccc1OCC(=O)NCC(=O)OCc1ccc(Br)cc1 | 17.8 |
| S=C(c1ccccc1)N1CCN(C(=S)c2ccccc2)CC1 | 27.5 |
| CCCNC(=O)c1onc(CSc2cccc(OC)c2)c1C(=O)NCCC | -7.12 |
| COc1ccc(CC(=O)NCCC(C)C)cc1S(=O)(=O)N1CCOCC1 | 4.39 |
| COc1ccc(NC(=O)CC(C)c2ccccc2)cc1S(=O)(=O)N1CCOCC1 (stereo not shown) | -4.76 |
| COc1ccc(S(=O)(=O)NCCSc2ccc(Cl)cc2)cc1OC | -22.4 |
| CCN(Cc1ccccc1)C(=O)c1cccnc1 | 2.64 |
| CCn1ncc(C(=O)Nc2ccc(S(=O)(=O)N3CCCC3)cc2)c1C | 2.64 |
